Where a name gives a salt, the structure may show the parent alone. The list shows a part of the results. Many values rest on one well or one pass, so single values are uncertain.
System: SKNAS
Assay: area under viability curve (10 nM-1 µM), viability relative to solvent or trametinib-only control (AUC (arbitrary, % viability x concentration range)); higher = less growth inhibition (more viable cells)
Conditions: 72 h compound exposure (96 h after seeding) h
Description: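 Four neuroblastoma cell lines (KCNR, SKNBE, SJNB8, SKNAS) were seeded in 384-well plates. At 24 h, 1 µM trametinib or DMSO was added, followed by library compounds at 10 nM, 100 nM and 1 µM. Viability was read by MTT at 96 h and normalised to solvent-treated cells (DMSO arm) or to trametinib-only cells (trametinib arm). The area under the 3-point viability curve was computed in GraphPad Prism; units are as given (approx. 100000 = no effect).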
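Also: KCNR is a neuroblastoma cell line carrying an ALK mutation, in this DMSO arm without trametinib, viability was normalised to solvent-treated cells.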

Row | SMILES | area under viability curve (trametinib co-treatment 0 µM) | area under viability curve (trametinib co-treatment 1 µM)
1 | CC[C@H](Nc1nc(NCc2cnc(C)cc2C)c2ncn(C(C)C)c2n1)[C@@H](C)O [Fadraciclib] | 94500 | 101000
2 | C[C@]12CC[C@@H]3c4ccc(OC(=O)N(CCCl)CCCl)cc4CC[C@H]3[C@@H]1CC[C@@H]2OP(=O)(O)O [Estramustine phosphate sodium] | 84400 | 99600
3 | N[C@@H](Cc1ccc(N(CCCl)CCCl)cc1)C(=O)O [Melphalan] | 118000 | 97800
4 | CC(=O)Oc1ccc(/C=C/c2cc(OC(C)=O)cc(OC(C)=O)c2)cc1 [Triacetylresveratrol] | 95200 | 102000
5 | CC[C@@]1([C@H]2O[C@H]([C@H]3O[C@@](O)(CO)[C@H](C)C[C@@H]3C)C[C@H]2C)CC[C@H]([C@@]2(C)CC[C@]3(C[C@H](O)[C@@H](C)[C@@H]([C@H](C)[C@H](OC)[C@@H](C)C(=O)O)O3)O2)O1 [Monensin sodium] | 102000 | 83700
6 | N[C@@H]1C[C@H]1c1ccccc1.N[C@H]1C[C@@H]1c1ccccc1 [Tranylcypromine hemisulfate] | 87200 | 93100
7 | O=C(O)c1nn(Cc2ccc(Cl)cc2Cl)c2ccccc12 [Lonidamine] | 122000 | 100000
8 | N.N.[Cl][Pt][Cl] [Cisplatin] | 77400 | 101000
9 | C[C@]12CCC(=O)C(O)=C1CC[C@@H]1[C@@H]2CC[C@]2(C)C(=O)CC[C@@H]12 [Formestane] | 95500 | 97300
10 | C=C1C[C@@H]2[C@H](CC[C@]3(C)C(=O)CC[C@@H]23)[C@@]2(C)C=CC(=O)C=C12 [Exemestane] | 109000 | 102000
11 | Cc1ncc(CNC(=O)N(CCCl)N=O)c(N)n1 [Nimustine HCl] | 120000 | 100000
12 | CCC(=O)CCCCC[C@@H]1NC(=O)[C@H]2CCCCN2C(=O)[C@H]([C@@H](C)CC)NC(=O)[C@H](Cc2cn(OC)c3ccccc23)NC1=O [Apicidin] | 52600 | 55800
